Test results as given in the supplement of paper PMC11417369.
± gives the standard deviation of the averaged measurements. Some of the results follow.

system: PfAP2-I AP2 domain 3 (GST-tagged); experiment: gcPBM binding intensity (ln(normalized median fluorescence intensity)); higher = stronger DNA binding
Method in brief: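 An Agilent 4 × 180k array carrying primer-extended double-stranded 36-bp intergenic genomic probes and negative controls received GST-tagged P. falciparum DNA-binding domains expressed in E. coli, about 25 μg on average, for 1 h. The binding buffer contained 1× PBS, 1% milk, 0.2 mg/ml BSA, 0.5% salmon testes DNA and 0.03% Triton X-100. Binding intensity is the top Masliner-normalised natural-log median intensity across replicate spots of either probe orientation, read after Alexa488 anti-GST antibody staining and a 488 nm scan.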

| Sequence | gcPBM binding intensity (ln) |
| --- | --- |
| TATAACACACAATGATGTACATTACATTATTTTTTA [XGTACX_site2076] | 7.84 ± 0.33 |
| ATATATATATATATGTGTACATATTTTTTTGAAGTG [XGTACX_site248] | 9.46 ± 0.3 |
| TAATATAAATGAAAGGTGCTTTTGCTTTCTTTTTTT | 8.7 ± 0.23 |
| TTTTCTATATAACAACGTACATTTATTATATTATAA [XGTACX_site6148] | 8.06 ± 0.47 |
| AAAAAAAAAAAAAATACACACACACCGATATATATA [CACACA_site8142] | 8.33 ± 0.62 |
| ATACATATAATAATATGTACATATAATTATATATAT [XGTACX_site913] | 8.21 ± 0.7 |
| TATTACATAATATATGTACACACGCAAATACTTATA [CACACA_site7994] | 7.91 ± 0.26 |
| CAAAAAAAGTTATACACACACACACGGATATAAATA [CACACA_site6619] | 8 ± 0.54 |
| TAACAACGATACAATTGTACAAATTATATATATATA [XGTACX_site4687] | 9.34 ± 0.099 |
| AGCAAGACGGGGTGCACACAAACTAATATGCCGAAT [CACACA_site159] | 10.8 ± 0.57 |
| AATAATATATTATATGCATGTGTATAATTTGATATA [TGCATGCA_site1058] | 8.04 ± 0.45 |
| CAAAGGAAATGGTGTACACAATTTTTCCTTTTTCGT [CACACA_site4800] | 7.94 ± 0.31 |
| TTTGGTTATTTGACCTGTACACATTTAATTATTTTT [XGTACX_site5170] | 7.86 ± 0.41 |
| ATTATGAATTTAAGACGTACAAAAAATTTTTATTCA [XGTACX_site5682] | 7.8 ± 0.31 |
| ACAAGTATTCCTTTTGCACACCTTTCTGCACCTTAT [CACACA_site3873] | 10.8 ± 0.24 |
| ATTAAAATAATACGTACACACATGTATAATACATAT [CACACA_site1005] | 8.18 ± 0.21 |
| TTATAACATATAAACATGTTTCATCTTACGTATTTT [GTGCAC_negctrl_site694] | 7.83 ± 0.68 |
| TGTTATATCAATAATATATAATAATACCCTTCTTTT [CACACA_negctrl_site1682] | 7.28 ± 0.57 |
| ATAAGAATATATAGAGTGCGTTGAAGAATTATAATA | 9.89 ± 0.27 |
| ATATTTAATTTGTATGGTACAGTACGATCTTTCTTT [XGTACX_site5533] | 7.72 ± 0.48 |
| CCCTCAACGAATTTGAGTACACATTTTAAATGATAT [XGTACX_site7763] | 7.79 ± 0.36 |
| ATCGCAAGATTAATATAAGGAGAAACGTTTATATAT [GTGCAC_negctrl_site267] | 7.8 ± 0.57 |
| ATTTAAATAATATTCACACACAAAATTAAATTTTAA [CACACA_site6246] | 7.72 ± 0.4 |

| Sequence | gcPBM binding intensity (ln) |
| --- | --- |
| AAAAAATTAACCGTAACACACACACCGATATATATA [CACACA_site9312] | 8.18 ± 0.69 |
| AATCTAGGTATTTATACACACTAAAATAATATACGA [CACACA_site4515] | 7.82 ± 0.63 |
| AAAAAAAAAAGAAACACACACATATAGATTTATAAC [CACACA_site6927] | 7.69 ± 0.69 |
| GCTCTAATTAATATTTGTACACACATATTTAACCTA [XGTACX_site6808] | 8.21 ± 0.73 |
| TTTTTTTTTTTTTTTTGTACATAATTCCATATTTTT [XGTACX_site1789] | 8.04 ± 0.65 |
| TGATCTTTACACATATTATATATATATAAAAAAAAA [XGTACX_negctrl_site360] | 7.8 ± 0.42 |
| TTATACTGTACAAAAAGAATAGCAGTATAACAAAAA [CACACA_negctrl_site755] | 8 ± 0.69 |
| AAAAAAAAATCATATTGTACGTAAAAAAAAAAAAAA [XGTACX_site476] | 8.22 ± 0.38 |
| AATATGTTTTGTTAGGTTGGTGTTGGTAGAATGTTT [CACACA_negctrl_site1563] | 7.79 ± 0.51 |
| ACAGGATTGGTTCAAACACACATATTATAGGACTAT [CACACA_site6455] | 7.75 ± 0.5 |
| ATAATCCTTAGACACACACACACACGAATAAATAAA [CACACA_site6364] | 8.05 ± 0.4 |
| CGAAAAAATAAAAAAAAAATAAAATAAAATAAATAA [TGCATGCA_negctrl_site278] | 7.4 ± 0.4 |
| CAATATATTTGATTTACACACTTACAATGTATTTAA [CACACA_site5632] | 7.67 ± 0.64 |
| TCTGTAAATATGTATACACACATATATGATCAATAT [CACACA_site3234] | 7.87 ± 0.52 |
| AGTAGAAAAGGAACATGTACGAATTAAAAAAATAAT [XGTACX_site2347] | 8.08 ± 0.72 |
| AATTAAATGATTTATACATGCATATAAATATAAATA [TGCATGCA_site579] | 7.96 ± 0.59 |
| TACACCATGATACATACACACAGACATATACACATT [CACACA_site6601] | 8.02 ± 0.45 |
| ACATATATATATATATATATATATATATTTATTTAT [CACACA_negctrl_site734] | 8.43 ± 0.26 |
| AAAAAACATTTGATCTGTACGCATAGACAATTATAT [XGTACX_site960] | 7.75 ± 0.46 |
| AATAATATGTTATCTCTTACACATATAAAAAATAAA [XGTACX_negctrl_site370] | 7.38 ± 0.43 |
| TAAAAGAAAGCACATACACACACAAAAAAAAAAAAG [CACACA_site8159] | 8.16 ± 0.35 |
| TATCCTTATATTTGCACACACACACCCTAAAATGAA [CACACA_site1029] | 9.88 ± 0.27 |
| TTTATATTTAAAAGGATGCACTACAAATTCTAAATA | 8.95 ± 0.18 |

| Sequence | gcPBM binding intensity (ln) |
| --- | --- |
| AAAACAAACAGACACACACACATATTTATATTTATA [CACACA_site7681] | 7.81 ± 0.37 |
| TTATATTAAACAAACACACACATATAAATATAAATA [CACACA_site7174] | 7.95 ± 0.41 |
| AAGACAAATATGAAGAGTACATTTATATAAAAATTA [XGTACX_site5142] | 7.61 ± 0.5 |
| CTACAATATCTTTAAAGTACTTTTATATAACTACCA [XGTACX_site6119] | 7.92 ± 0.47 |
| ATATATTTTTATGTAGTGCATTTAAATAATAAATGC | 10.7 ± 0.55 |
| ATTTTTTCCAATTCTTTACCTTAGAAAGGTGTTCAA [CACACA_negctrl_site1401] | 7.72 ± 0.82 |
| ATTCTAAATAAATGTACACACAAAAATAAATGTATA [CACACA_site1732] | 7.92 ± 0.22 |
| ATATATATATAATGAAGTACGAAAAAATAAGAAATG [XGTACX_site4001] | 8.91 ± 0.24 |
| ACCTCATAATATTTAACACACAAAATTATATGTATG [CACACA_site1704] | 7.86 ± 0.44 |
| AATGATCAGATATACACACACACAAAAAAAAAAAAA [CACACA_site7806] | 7.96 ± 0.67 |
| GTAAATAAATAAATAAATAAATATATATATATATAT [CACACA_negctrl_site1737] | 9.41 ± 0.37 |
| AATAAAAAAAAATTCACACAAAGTTAGATTAACTAT [CACACA_site4224] | 7.39 ± 0.54 |
| CACAAAAATTTATACACACACATATAAAATATAGAT [CACACA_site6218] | 7.85 ± 0.26 |
| AGTTATTACACACAAACATGCATTAATATCAAAAAA [TGCATGCA_site63] | 8.45 ± 0.4 |
| TTCACTATACAAAGGTGTACTTAATTTTGTCCCATT [XGTACX_site7483] | 7.92 ± 0.47 |
| AATTCACATGTGAACTAAAAGAATATTATATATATA [CACACA_negctrl_site1632] | 8.64 ± 0.36 |
| AAATATATATATAGTACATGCAGTAGATAATTTAAT [TGCATGCA_site299] | 8.44 ± 0.93 |
| ATTAGGTATTTTTTTTGTACATATTATATAATGTGA [XGTACX_site3815] | 7.79 ± 0.74 |
| TAAAATATACAAATTTGTACATATATATGTATGTAT [XGTACX_site1127] | 7.94 ± 0.49 |
| TGCAGGTGTTATTCACGTACGCATTTGATTAAAAAA [XGTACX_site7743] | 8.53 ± 1.1 |
| TAATTTTATATAAATTGTACAAAAATATTTTATTAA [XGTACX_site7166] | 7.62 ± 0.3 |
| ATTAGAAAATAAAATAATAAATAAAATAAAAAAAAA [CACACA_negctrl_site409] | 7.49 ± 0.82 |
| ATAAAAACATAAAAATGTACATATATATATATATAT [XGTACX_site7165] | 9.2 ± 0.55 |

| Sequence | gcPBM binding intensity (ln) |
| --- | --- |
| GTGTTGGGAAAAGGCATGCACTTTTTTTTTTTTTTT | 9.08 ± 0.61 |
| ATGTATATGCAAACATGTACATATATAAACATATAT [XGTACX_site4159] | 7.88 ± 0.69 |
| AATATTAGGTTATGTAGTACATAACAATAATTATAC [XGTACX_site5733] | 8.05 ± 0.48 |
| AAGGAATATGTATATACACACAGGTACATATTTATA [CACACA_site6344] | 7.86 ± 0.47 |
| ATAAAGAATATAAATACACACTTAAATATATATTAT [CACACA_site6071] | 7.64 ± 0.44 |
| AATAAGAATTAAAAATGTACAAAAAAATGTATTTAT [XGTACX_site8005] | 7.64 ± 0.63 |
| AAGTATAAAATATTTTGTACTTAAAAAATTATATGG [XGTACX_site2180] | 7.72 ± 0.35 |
| TTTTTTTTTTTTGGTAGTACATAAATATTTTATGGA [XGTACX_site6851] | 8.26 ± 0.57 |
| AGTGGGATTTTTAATTGTACATAAATAATATCATAA [XGTACX_site4163] | 8.04 ± 0.4 |
| CATGTTATATATATATGTACTAAAAATATAATATAA [XGTACX_site1978] | 7.76 ± 0.49 |
| CAATAAATAATAAATACATGCAAGTATGAAGATATA [TGCATGCA_site859] | 7.86 ± 0.67 |
| TATATATATTTTAACACACACATATATATATTTATA [CACACA_site2765] | 8.06 ± 0.49 |
| TGTTTGATGGTACACGTACACACCTTGCAAATATTT [CACACA_site888] | 8.24 ± 0.67 |
| AATATAAAATAGAAAAATGAAAAAAAAAAAAAGGGT [CACACA_negctrl_site1263] | 8.21 ± 0.62 |
| TATGAATATTGCATGTGTACCTATTATCCTTTTAAA [XGTACX_site4311] | 8.05 ± 0.6 |
| ATAATTATTTTCCCGTGTACTTATTTTTTTCAAGTA [XGTACX_site8843] | 8.29 ± 0.59 |
| ATATAAAATAAAAAAAAAAAAAAAAAAAAAAAAAAA [CACACA_negctrl_site1234] | 8.35 ± 1.1 |
| TAATTAAAAAATGAATAAATGAATAAATAAATAAAT [CACACA_negctrl_site838] | 7.66 ± 0.85 |
| TTTTTGTATCCTTTTAATATTAAATAAAAGGAATGT [CACACA_negctrl_site1468] | 7.76 ± 0.62 |
| TTAATGTTTGAAAGAGTGCACATAACAAAAAAAAAA [GTGCAC_site9623] | 10.48 ± 0.021 |
